# Hit rate of the full screen: of about 380,000 compounds, about 4,000 (1.1%) were called active. Inconclusive means that the source gave no clear call. Such entries were picked first, then a sample of the others. Calls come from the whole dose curve; as a rule, active = well fitted activation curve with a large enough effect; inconclusive = small, poorly fitted or top-dose-only effect; inactive = no such curve, though single readings can be large or run the other way. Potencies of inconclusive entries are doubtful fits and often do not repeat.
# Assay: qHTS Assay to Identify Small Molecule Activators of BRCA1 Expression; note: nearly all actives have a fitted effect of over 80% in size
# Settings: MCF7-BRCA1-FFLuc reporter, luminescence, 48 h; activation: at 46.1 µM (top of the series), scaled: vehicle 0%, 10 µM genistein 100% unless noted
# In short: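 Compounds are tested at multiple concentrations on MCF7 BRCA1-luciferase reporter cells seeded at 2000 per well; after 48 h, a single luminescence end-point is taken and curves fitted to the normalized data.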
# Potency is the fitted concentration of half-maximal effect; tags give direction and shape of the fitted curve.
Compound,activation,Potency
CCOC(=O)NN1C(=O)c2ccccc2NC1c1cccnc1 (configuration not stated),inactive: -16.8%,–
Cc1occc1C(=O)Nc1ccc(OCc2ccccc2)cc1,–,"inconclusive: 3.98 µM [activator, full curve, poor fit]"
Cc1ccc(-c2nonc2NC(=O)c2ccco2)cc1,–,"inconclusive: 20 µM [activator, single point]"
COC(=O)c1cc(C(=O)c2ccc(C(C)(C)C)cc2)c[nH]1,–,"inconclusive: 2 µM [activator, full curve, poor fit]"
O=C(CCCc1ccccc1)Nc1ccnn1C1CCN(Cc2ccccc2F)CC1,inactive: -14.7%,–
CCOc1ccc(NC(=O)c2ccc3c(c2)N(C)CCS3)cc1,–,"inconclusive: 7.08 µM [activator, full curve, poor fit]"
Cc1c(-c2ccc(Br)cc2)nc2ccccn12,inactive: 18.9%,–
COc1ccccc1OCc1cc(C(=O)N(C)CCC2CCCCO2)no1 (configuration not stated),–,"inconclusive: 20 µM [activator, partial curve, poor fit]"
Cc1ccc2c(c1)sc1nc(=O)n(-c3ccccc3)c(=O)n12,inconclusive: 55.2% [activator],–
O=C(c1ccc2oc(CCCc3ccccc3)nc2c1)N1CCCCC1CO (configuration not stated),–,"inconclusive: 4.47 µM [activator, partial curve, poor fit]"
C=CCc1ccc(OCc2ccc(C(=O)O)o2)c(OC)c1,inconclusive: -52.4% [activator],–
CCOC(=O)c1nn(-c2ccc(C)cc2)cc1O,–,"inconclusive: 2.82 µM [activator, full curve, poor fit]"
Cc1ccc(OCc2cc(C(=O)N3CCN(C)C[C@@H]3c3ccccc3)no2)cc1C,–,"inconclusive: 20 µM [activator, partial curve, poor fit]"
COc1ccc(-n2c(C)cc(/C=C3/SC(=S)N(C)C3=O)c2C)cc1,–,"inconclusive: 25.1 µM [activator, single point]"
COc1ccccc1CNC(=O)c1ccc(C)s1,–,"inconclusive: 35.5 µM [activator, single point]"
O=C(Nc1ccccc1)Nc1ccc2ccccc2c1,–,"inconclusive: 3.98 µM [activator, partial curve, poor fit]"
FC(F)(F)c1cc(Nc2ccccc2)nc(-c2ccccn2)n1,inactive: 3.9%,–
Cc1ccc(/C=N/c2sc3c(c2C#N)CCC3)s1,–,"inconclusive: 3.55 µM [activator, full curve, poor fit]"
Cc1nn(C)c(C)c1NC(=O)CCSc1nc(-c2ccco2)cc(C(F)(F)F)n1,inactive: 16.6%,–
Cc1ccc(-c2nnc(SCc3ccccc3F)o2)cc1,–,"inconclusive: 2.51 µM [activator, full curve, poor fit]"
O=C(CCC(=O)c1ccc[nH]1)c1ccc(Cl)cc1,–,active: 7.08 µM
O=C(NC1CCCCCC1)c1c(O)c2ccccc2[nH]c1=O,–,"inconclusive: 3.55 µM [activator, partial curve, poor fit]"
O=C(OCC(=O)N1CCCCCC1)c1cccnc1Cl,–,"inconclusive: 11.2 µM [activator, partial curve, poor fit]"
Cn1cccc1CNC(=O)Nc1ccc(Cl)c(Cl)c1,–,active: 2.24 µM

Compound,activation,Potency
COc1cc2ccccc2cc1C(=O)NC(=S)Nc1cccc(C(=O)O)c1,–,"inconclusive: 3.98 µM [activator, partial curve, poor fit]"
COC(=O)c1ccc(CC(=O)c2nc3ccccc3s2)cc1,inactive: 44.7%,–
COc1cccc(C2=NOC(C(=O)N3CCOCC3)C2)c1 (configuration not stated),–,"inconclusive: 17.8 µM [activator, partial curve, poor fit]"
O=C(N/N=C/c1cc2c(cc1Br)OCO2)c1cc2ccccc2o1,–,"inconclusive: 22.4 µM [activator, single point]"
COc1ccc(NC(=O)c2nnn(Cc3nc(-c4cc(Br)ccc4OC)oc3C)c2C)cc1,inactive: 9.52%,–
Cc1ccc(C)c(Cn2c(=O)n(CCCCC(=O)NCc3ccccc3Cl)c(=O)c3ccccc32)c1,inactive: -7.38%,–
COc1cc2nc(N3CCCN(C)CC3)nc(N)c2cc1OC,inactive: 2.89%,–
CCc1cc(=O)oc2cc(OCc3ccc(C(=O)O)o3)ccc12,–,active: 6.31 µM
O=C(NCc1csc(-c2cccs2)n1)C1CCCCC1,–,"inconclusive: 14.1 µM [activator, partial curve, poor fit]"
Cc1ccc(Oc2ccc(NC(=O)c3ccco3)cc2)cc1,–,active: 11.2 µM
COC(=O)c1ccc(NC(=O)c2ccccc2OCC(=O)Nc2ccc(Br)cc2)cc1,inactive: -16.3%,–
O=C(NCc1ccccn1)C1CCC(=O)N1C1CCCC1 (configuration not stated),inactive: 1.42%,–
O=[N+]([O-])c1cccc(COc2ccc(CN3CCOCC3)cc2)c1,–,"inconclusive: 1.78 µM [activator, full curve, poor fit]"
O=C(NCC1CCCO1)C(=O)c1c[nH]c2ccccc12 (configuration not stated),–,"inconclusive: 15.8 µM [activator, partial curve, poor fit]"
O=C(Nc1nnc(C2CC2)s1)C1Cc2ccccc2CN1S(=O)(=O)c1ccccc1F (configuration not stated),–,"inconclusive: 10 µM [activator, partial curve, poor fit]"
O=C1OC(c2ccc(Br)cc2)=N/C1=C\N1CCCCC1,–,"inconclusive: 35.5 µM [activator, partial curve, poor fit]"
Nc1[nH]n(-c2ccccc2)c(=O)c1N=Nc1ccccc1,–,"inconclusive: 6.31 µM [activator, partial curve, poor fit]"
COc1cccc(OCCOc2cccc(/C=N/n3cnnc3)c2)c1,–,"inconclusive: 2 µM [activator, partial curve, poor fit]"
CCOC(=O)c1ccc(NC(=O)c2ccccc2)cc1,–,active: 2.82 µM
CN1C(=O)/C(=C/c2coc3ccc(O)cc3c2=O)SC1=S,inactive: -2.18%,–
Cn1cc(Cl)c(/C(N)=N/OC(=O)c2ccccc2C(F)(F)F)n1,–,active: 11.2 µM
C/C(=N\NC(=O)CCn1nnc2ccccc21)c1cccs1,–,"inconclusive: 17.8 µM [activator, partial curve, poor fit]"
Cc1nc(NC(=O)Nc2ccc(Cl)cc2)sc1C,–,active: 5.62 µM
